Earlier results on one substance are cited in patent US20120231025A1 (priority 2009, published 2012).

In the series the test system is hematopoietic cells. To be noted: irradiated animals; U.S. Pat. No. 6,159,950, Examples 5 and 7; cited from earlier work.

With H-L-Ile-L-Glu-L-Trp-OH [Neogen], the “Hematopoietic progenitors, spleen colony forming units (CFU-S)” value is recorded as “more hematopoietic progenitors”.
